Source: the supplement of paper PMC10037445
± gives the standard deviation of the averaged measurements. The full ranking holds about 2,900 compounds; the median of “NF-kB SEAP reporter activity, fold change vs agonist alone” is about 0.99, and the highest 2% start at about 2.6. The list shows a part of the results.

Experiments:
[1] = tested on: RAW-Dual; assay: NF-kB SEAP reporter activity, fold change vs agonist alone; higher = enhanced NF-kB activity; conditions: library stock concentration (final ~1000-fold dilution): 10 mM
In short: (§1)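 RAW-Dual macrophages were seeded in DMEM at 50,000 cells/well in 384-well plates, given 50 nL of library stock by pin tool, and given a PRR agonist 1 h later. Plates were held at 37 °C, 5% CO2 for 20 hours, after which supernatant was read for IRF by QuantiLuc luminescence and for NF-κB by QuantiBlue absorbance at 620 nm. Reporter activity is expressed as fold change over wells that received agonist alone. A well was called cytotoxic when IncuCyte confluency fell below 70% of agonist controls in both mask sets.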

[2] = tested on: RAW-Dual; assay: NF-kB SEAP reporter activity, fold change vs agonist alone; cytotoxicity flag (confluency mask): not cytotoxic; higher = enhanced NF-kB activity
In short: as §1

[3] = tested on: RAW-Dual; assay: NF-kB SEAP reporter activity, fold change vs agonist alone; cytotoxicity flag (confluency mask): cytotoxic (confluency <70% of control); higher = enhanced NF-kB activity
In short: as §1

[4] = cytotoxicity flag (confluency mask): not cytotoxic, agonist: Imiquimod (TLR7) […]
[5] = cytotoxicity flag (confluency mask): not cytotoxic, agonist: MPLA (TLR4) […]
[6] = agonist: ODN 1826 (TLR9) 0.5 ug/mL
[7] = agonist: Pam2CSK4 (TLR2/6) 0.1 ug/mL
[8] = agonist: Pam3CSK4 (TLR2/1) 0.1 ug/mL
[9] = cytotoxicity flag (confluency mask): cytotoxic (confluency <70% of control), agonist: Imiquimod (TLR7) […]
[10] = cytotoxicity flag (confluency mask): cytotoxic (confluency <70% of control), agonist: MPLA (TLR4) […]

SMILES: O=[N+]([O-])c1ccc(Nc2ccccc2-c2ccccc2)c2nonc12
- NF-kB SEAP reporter activity [1, 4]: 0.973
- NF-kB SEAP reporter activity [1, 5]: 1.33

SMILES: O=[N+]([O-])c1ccc(Nc2ccccc2-c2ccccc2)c2nonc12 (library stock concentration (final ~1000-fold dilution): 10 mM)
- NF-kB SEAP reporter activity ([2]; agonist: LPS (TLR4) 0.1 ug/mL): 2.02
- NF-kB SEAP reporter activity [2, 6]: 1.02
- NF-kB SEAP reporter activity [2, 7]: 0.555
- NF-kB SEAP reporter activity [2, 8]: 0.754

SMILES: C[N+](C)(C)CC(O)CC(=O)O (stereo not given) (library stock concentration (final ~1000-fold dilution): 10 mM)
- NF-kB SEAP reporter activity ([2]; agonist: LPS (TLR4) 0.1 ug/mL): 1.22
- NF-kB SEAP reporter activity [2, 6]: 1.04
- NF-kB SEAP reporter activity [2, 7]: 1.09
- NF-kB SEAP reporter activity [2, 8]: 1.04

SMILES: C[N+](C)(C)CC(O)CC(=O)O (stereo not given)
- NF-kB SEAP reporter activity [1, 4]: 0.865
- NF-kB SEAP reporter activity [1, 5]: 0.993

SMILES: COc1nc2ccc(Br)cc2cc1C(c1ccccc1)C(O)(CCN(C)C)c1cccc2ccccc12.O=C(O)/C=C/C(=O)O (stereo not given) (library stock concentration (final ~1000-fold dilution): 10 mM)
- NF-kB SEAP reporter activity ([2]; agonist: LPS (TLR4) 0.1 ug/mL): 0.558
- NF-kB SEAP reporter activity [2, 6]: 0.739
- NF-kB SEAP reporter activity [2, 7]: 0.383
- NF-kB SEAP reporter activity [2, 8]: 0.32

SMILES: COc1nc2ccc(Br)cc2cc1C(c1ccccc1)C(O)(CCN(C)C)c1cccc2ccccc12.O=C(O)/C=C/C(=O)O (stereo not given)
- NF-kB SEAP reporter activity [1, 5]: 0.907

SMILES: Cl.NCCOCCOCCNC(=O)Cc1ccc(Nc2nc(NCc3ccc(F)cc3)nc(NCC3CCCCC3)n2)cc1 (library stock concentration (final ~1000-fold dilution): 10 mM)
- NF-kB SEAP reporter activity ([3]; agonist: LPS (TLR4) 0.1 ug/mL): 0.643
- NF-kB SEAP reporter activity [3, 6]: 0.852
- NF-kB SEAP reporter activity [3, 7]: 0.738
- NF-kB SEAP reporter activity [3, 8]: 0.911

SMILES: Cl.NCCOCCOCCNC(=O)Cc1ccc(Nc2nc(NCc3ccc(F)cc3)nc(NCC3CCCCC3)n2)cc1
- NF-kB SEAP reporter activity [1, 9]: 1.05
- NF-kB SEAP reporter activity [1, 10]: 1.59

SMILES: OCCn1cc(-c2cnc3nnn(Cc4ccc5ncccc5c4)c3n2)cn1
- NF-kB SEAP reporter activity [1, 4]: 0.952
- NF-kB SEAP reporter activity [1, 5]: 0.983

SMILES: OCCn1cc(-c2cnc3nnn(Cc4ccc5ncccc5c4)c3n2)cn1 (library stock concentration (final ~1000-fold dilution): 10 mM)
- NF-kB SEAP reporter activity ([2]; agonist: LPS (TLR4) 0.1 ug/mL): 1.01
- NF-kB SEAP reporter activity [2, 6]: 1.07
- NF-kB SEAP reporter activity [2, 7]: 1.09
- NF-kB SEAP reporter activity [2, 8]: 1.06

SMILES: COC(=O)NC(C(=O)N1CCCC1c1ncc(-c2ccc(-c3ccc(-c4cnc(C5CCCN5C(=O)C(NC(=O)OC)C(C)C)[nH]4)cc3)cc2)[nH]1)C(C)C (stereo not given) (library stock concentration (final ~1000-fold dilution): 10 mM)
- NF-kB SEAP reporter activity ([2]; agonist: LPS (TLR4) 0.1 ug/mL): 1.88
- NF-kB SEAP reporter activity [2, 6]: 0.935
- NF-kB SEAP reporter activity [2, 7]: 0.867
- NF-kB SEAP reporter activity [2, 8]: 0.8

SMILES: COC(=O)NC(C(=O)N1CCCC1c1ncc(-c2ccc(-c3ccc(-c4cnc(C5CCCN5C(=O)C(NC(=O)OC)C(C)C)[nH]4)cc3)cc2)[nH]1)C(C)C (stereo not given)
- NF-kB SEAP reporter activity [1, 4]: 1.24
- NF-kB SEAP reporter activity [1, 5]: 1.31

SMILES: Cc1nc2ccc(CN(C)c3ccc(C(=O)NC(CCC(=O)O)C(=O)O)s3)cc2c(=O)[nH]1 (stereo not given) (library stock concentration (final ~1000-fold dilution): 10 mM)
- NF-kB SEAP reporter activity ([2]; agonist: LPS (TLR4) 0.1 ug/mL): 1.56
- NF-kB SEAP reporter activity [2, 6]: 1.93
- NF-kB SEAP reporter activity [2, 7]: 1.31
- NF-kB SEAP reporter activity [2, 8]: 1.7

SMILES: Cc1nc2ccc(CN(C)c3ccc(C(=O)NC(CCC(=O)O)C(=O)O)s3)cc2c(=O)[nH]1 (stereo not given)
- NF-kB SEAP reporter activity [1, 4]: 1.78
- NF-kB SEAP reporter activity [1, 5]: 1.45

SMILES: CCCCc1oc2ccccc2c1C(=O)c1cc(I)c(OCCN(CC)CC)c(I)c1.Cl
- NF-kB SEAP reporter activity [1, 4]: 1.75
- NF-kB SEAP reporter activity [1, 5]: 1.96

SMILES: CCCCc1oc2ccccc2c1C(=O)c1cc(I)c(OCCN(CC)CC)c(I)c1.Cl (library stock concentration (final ~1000-fold dilution): 10 mM)
- NF-kB SEAP reporter activity ([2]; agonist: LPS (TLR4) 0.1 ug/mL): 1.8
- NF-kB SEAP reporter activity [2, 6]: 0.581
- NF-kB SEAP reporter activity [2, 7]: 0.912
- NF-kB SEAP reporter activity [2, 8]: 0.805

SMILES: COC(=O)C12CCC(C)(C)CC1C1C(=O)C=C3C4(C)C=C(C#N)C(=O)C(C)(C)C4CCC3(C)C1(C)CC2 (stereo not given) (library stock concentration (final ~1000-fold dilution): 10 mM)
- NF-kB SEAP reporter activity ([3]; agonist: LPS (TLR4) 0.1 ug/mL): 0.353 ± 0.078
- NF-kB SEAP reporter activity [3, 6]: 0.184 ± 0.025
- NF-kB SEAP reporter activity [3, 7]: 0.0738 ± 0.0054
- NF-kB SEAP reporter activity [3, 8]: 0.139 ± 0.0028

SMILES: COC(=O)C12CCC(C)(C)CC1C1C(=O)C=C3C4(C)C=C(C#N)C(=O)C(C)(C)C4CCC3(C)C1(C)CC2 (stereo not given)
- NF-kB SEAP reporter activity [1, 9]: 0.143 ± 0.0056
- NF-kB SEAP reporter activity [1, 10]: 0.255 ± 0.0027

SMILES: O=C(O)c1ccc2nc(-c3cc(Cl)cc(Cl)c3)oc2c1 (library stock concentration (final ~1000-fold dilution): 10 mM)
- NF-kB SEAP reporter activity ([2]; agonist: LPS (TLR4) 0.1 ug/mL): 1.26
- NF-kB SEAP reporter activity [2, 6]: 1.05
- NF-kB SEAP reporter activity [2, 7]: 0.972
- NF-kB SEAP reporter activity [2, 8]: 1.13

SMILES: O=C(O)c1ccc2nc(-c3cc(Cl)cc(Cl)c3)oc2c1
- NF-kB SEAP reporter activity [1, 4]: 0.977
- NF-kB SEAP reporter activity [1, 5]: 1.18

SMILES: CN(C)CCCC1(c2ccc(F)cc2)OCc2cc(C#N)ccc21.O=C(O)C(=O)O (stereo not given)
- NF-kB SEAP reporter activity [1, 4]: 1.19
- NF-kB SEAP reporter activity [1, 5]: 0.996

SMILES: CN(C)CCCC1(c2ccc(F)cc2)OCc2cc(C#N)ccc21.O=C(O)C(=O)O (stereo not given) (library stock concentration (final ~1000-fold dilution): 10 mM)
- NF-kB SEAP reporter activity ([2]; agonist: LPS (TLR4) 0.1 ug/mL): 0.861
- NF-kB SEAP reporter activity [2, 6]: 0.971
- NF-kB SEAP reporter activity [2, 7]: 0.838
- NF-kB SEAP reporter activity [2, 8]: 0.973

SMILES: CNC(=O)c1cc(Oc2ccc(NC(=O)Nc3ccc(Cl)c(C(F)(F)F)c3)cc2)ccn1.Cc1ccc(S(=O)(=O)O)cc1 (library stock concentration (final ~1000-fold dilution): 10 mM)
- NF-kB SEAP reporter activity ([3]; agonist: LPS (TLR4) 0.1 ug/mL): 0.415
- NF-kB SEAP reporter activity [3, 6]: 0.808
- NF-kB SEAP reporter activity [3, 7]: 0.164
- NF-kB SEAP reporter activity [3, 8]: 0.324

SMILES: CNC(=O)c1cc(Oc2ccc(NC(=O)Nc3ccc(Cl)c(C(F)(F)F)c3)cc2)ccn1.Cc1ccc(S(=O)(=O)O)cc1
- NF-kB SEAP reporter activity [1, 9]: 1.3
- NF-kB SEAP reporter activity [1, 10]: 1.16

SMILES: O=C(O)CC(CC(=O)O)C(=O)O
- NF-kB SEAP reporter activity [1, 4]: 0.972
- NF-kB SEAP reporter activity [1, 5]: 1.04

SMILES: O=C(O)CC(CC(=O)O)C(=O)O (library stock concentration (final ~1000-fold dilution): 10 mM)
- NF-kB SEAP reporter activity ([2]; agonist: LPS (TLR4) 0.1 ug/mL): 1.45
- NF-kB SEAP reporter activity [2, 6]: 0.973
- NF-kB SEAP reporter activity [2, 7]: 0.946
- NF-kB SEAP reporter activity [2, 8]: 1.49

SMILES: Cc1ccc(-n2nc(C(C)(C)C)cc2NC(=O)NCc2cc(F)ccc2Oc2ccc3c(cnn3CCO)c2)cc1
- NF-kB SEAP reporter activity [1, 4]: 0.188
- NF-kB SEAP reporter activity [1, 5]: 0.318

SMILES: Cc1ccc(-n2nc(C(C)(C)C)cc2NC(=O)NCc2cc(F)ccc2Oc2ccc3c(cnn3CCO)c2)cc1 (library stock concentration (final ~1000-fold dilution): 10 mM)
- NF-kB SEAP reporter activity ([2]; agonist: LPS (TLR4) 0.1 ug/mL): 0.239
- NF-kB SEAP reporter activity [2, 6]: 0.216
- NF-kB SEAP reporter activity [2, 7]: 0.0703
- NF-kB SEAP reporter activity [2, 8]: 0.125

SMILES: O=C(OC(C(F)(F)F)C(F)(F)F)N1CCN(Cc2ccc(C(F)(F)F)cc2N2CCCC2)CC1 (library stock concentration (final ~1000-fold dilution): 10 mM)
- NF-kB SEAP reporter activity ([2]; agonist: LPS (TLR4) 0.1 ug/mL): 0.974
- NF-kB SEAP reporter activity [2, 6]: 0.861
- NF-kB SEAP reporter activity [2, 7]: 0.957
- NF-kB SEAP reporter activity [2, 8]: 0.863

SMILES: O=C(OC(C(F)(F)F)C(F)(F)F)N1CCN(Cc2ccc(C(F)(F)F)cc2N2CCCC2)CC1
- NF-kB SEAP reporter activity [1, 4]: 0.911
- NF-kB SEAP reporter activity [1, 5]: 1.06

SMILES: Oc1ccc(-c2nc(-c3ccc(F)cc3)c(-c3ccncc3)[nH]2)cc1
- NF-kB SEAP reporter activity [1, 4]: 1.92
- NF-kB SEAP reporter activity [1, 5]: 1.84

SMILES: Oc1ccc(-c2nc(-c3ccc(F)cc3)c(-c3ccncc3)[nH]2)cc1 (library stock concentration (final ~1000-fold dilution): 10 mM)
- NF-kB SEAP reporter activity ([2]; agonist: LPS (TLR4) 0.1 ug/mL): 2.59
- NF-kB SEAP reporter activity [2, 6]: 0.851
- NF-kB SEAP reporter activity [2, 7]: 1.01
- NF-kB SEAP reporter activity [2, 8]: 1.2
